Assay results taken from the supplement of paper PMC4604168 (melanoma cell lines).
The list shows a part of the results. Single values are uncertain, as repeats are few or missing.

Test system: WM3526
Assay: cell count relative to DMSO control; melanoma cells; higher = more viable cells
Conditions: library dose: standard library concentration; 72 h
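Note: cells treated in 1,536-well plates, then fixed and DAPI-stained, with nuclei counted from automated high-throughput microscope images.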

| SMILES | cell count [%] |
| --- | --- |
| Cn1cnc2c(F)c(Nc3ccc(Br)cc3Cl)c(C(=O)NOCCO)cc21 [selumetinib] + O=C(O)C(=O)Nc1sc2c(c1C(=O)O)CCNC2 [TCS401] (first compound 0.075 µM, partner dose 8.33333 µM) | 51 |
| C[C@]1(O)C[C@@H](c2nc(-c3ccc4ccc(-c5ccccc5)nc4c3)c3c(N)nccn32)C1 + Oc1nc(-c2ccc(C(F)(F)F)cc2)nc2c1CSCC2 [XAV939] (first compound 2 µM, partner dose 10 µM) | 105 |
| COc1cc([C@@H]2c3cc4c(cc3[C@@H](O[C@@H]3O[C@@H]5CO[C@@H](C)O[C@H]5[C@H](O)[C@H]3O)[C@H]3COC(=O)[C@H]23)OCO4)cc(OC)c1O [etoposide] + Oc1cc(-c2nc(-c3ccccc3)[nH]c2-c2ccncc2)ccc1Cl [L779450] (first compound 0.1 µM, partner dose 1 µM) | 60.9 |
| C[C@]1(O)C[C@@H](c2nc(-c3ccc4ccc(-c5ccccc5)nc4c3)c3c(N)nccn32)C1 + CCCCCCCCCCCC1=C(O)C(=O)C=C(O)C1=O [Embelin] (first compound 2 µM, partner dose 6 µM) | 73.9 |
| CCN(CC)CCNC(=O)c1c(C)[nH]c(/C=C2\C(=O)Nc3ccc(F)cc32)c1C [sunitinib] + CCCCCCCCCCCC1=C(O)C(=O)C=C(O)C1=O [Embelin] (first compound 2 µM, partner dose 6 µM) | 53.7 |
| C[C@]1(O)C[C@@H](c2nc(-c3ccc4ccc(-c5ccccc5)nc4c3)c3c(N)nccn32)C1 + O=C(Nc1ccccc1)c1cc([N+](=O)[O-])ccc1Cl [GW9662] (first compound 2 µM, partner dose 10 µM) | 78.6 |
| COc1cc([C@@H]2c3cc4c(cc3[C@@H](O[C@@H]3O[C@@H]5CO[C@@H](C)O[C@H]5[C@H](O)[C@H]3O)[C@H]3COC(=O)[C@H]23)OCO4)cc(OC)c1O [etoposide] + CCc1ccc(CCOc2ccc(CC3SC(=O)NC3=O)cc2)nc1 [pioglitazone] (first compound 0.1 µM, partner dose 10 µM) | 103 |
| C[C@]1(O)C[C@@H](c2nc(-c3ccc4ccc(-c5ccccc5)nc4c3)c3c(N)nccn32)C1 + O=c1cc(-c2cccc3c2Sc2ccccc2S3)oc(N2CCOCC2)c1 [KU55933] (first compound 2 µM, partner dose 5 µM) | 53.1 |
| C[C@]1(O)C[C@@H](c2nc(-c3ccc4ccc(-c5ccccc5)nc4c3)c3c(N)nccn32)C1 + O=C1NC(=O)/C(=C/c2ccc(-c3ccc(F)cc3O)o2)S1 [AS252424] (first compound 2 µM, partner dose 5 µM) | 65.9 |
| Cn1cnc2c(F)c(Nc3ccc(Br)cc3Cl)c(C(=O)NOCCO)cc21 [selumetinib] + CCCCCCCCCCCC1=C(O)C(=O)C=C(O)C1=O [Embelin] (first compound 0.075 µM, partner dose 6 µM) | 55.5 |
| CCN(CC)CCNC(=O)c1c(C)[nH]c(/C=C2\C(=O)Nc3ccc(F)cc32)c1C [sunitinib] + O=C(O)C(=O)Nc1sc2c(c1C(=O)O)CCNC2 [TCS401] (first compound 2 µM, partner dose 8.33333 µM) | 50.4 |
| C[C@]1(O)C[C@@H](c2nc(-c3ccc4ccc(-c5ccccc5)nc4c3)c3c(N)nccn32)C1 + Oc1cc(-c2nc(-c3ccccc3)[nH]c2-c2ccncc2)ccc1Cl [L779450] (first compound 2 µM, partner dose 1 µM) | 43.8 |
| COc1cc([C@@H]2c3cc4c(cc3[C@@H](O[C@@H]3O[C@@H]5CO[C@@H](C)O[C@H]5[C@H](O)[C@H]3O)[C@H]3COC(=O)[C@H]23)OCO4)cc(OC)c1O [etoposide] + COC(=O)c1sccc1S(=O)(=O)Nc1ccc(Nc2ccccc2)cc1OC [GSK0660] (first compound 0.1 µM, partner dose 5 µM) | 99 |
